We go through 167 variants from the RNAGym collection of RNA variant scans (doi:10.1093/nar/gkz1192).

Read counts are not given, so values of variants with three or more changes are uncertain.

B1: CPEB3 Ribozyme (parent)
chain: UAACAGGGGGCCACAGCAGAAGCGUUCACGUCGCAGCCCCUGUCAGAUUCUGGUGAAUCUGCGAAUUCUGCUGUAUAUCUC

The variants in this series derive from B1. Briefly: self-cleavage, relative activity (ratio to wild type); higher = more cleavage; in vitro, sequencing. Put shortly:
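After error-prone PCR and barcoding, CPEB3 ribozyme mutant libraries were transcribed with T7 RNA polymerase at 37°C for 5 hours, then given 15 min with DNase I before an EDTA stop, and they cleaved during both steps. Reverse transcription with template switching preceded Illumina sequencing. Relative activity divides a variant's cleaved/total read fraction by the unmutated ribozyme's. At least 5 reads were required per variant, and three batches were averaged.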
Consider U43C C59U U66C G73U, for which the self-cleavage was determined as 0.11.

Turning to G42A A56G U67C U72A, the self-cleavage was 0.03.

Take G42A U58C A64U U69A: the self-cleavage stood at 0.15.

Regarding U43C G70U U74A, the self-cleavage is 0.1.

Regarding U43C A64G U72A, the self-cleavage stood at 0.49.

U43C A47G A57G A64C: the self-cleavage worked out at 0.14.

As to U43C G63A U72C U78C, the self-cleavage was 0.77.

Turning to U43C U48C U51C, the self-cleavage was 0.22.

In the case of U43G A57G U80C, the self-cleavage worked out at 0.14.

As to U43C A57C A65G, the self-cleavage came out at 0.1.

In the case of C44U U49C U74C, the self-cleavage came out at 0.16.

For the variant G42U A56G A65U, the self-cleavage came to 0.18.

For the variant U43C A64G U66C U80A, the self-cleavage was 0.09.

As for C44U A56U A65U U78C, the self-cleavage came out at 0.18.

For the variant C44A U60C A65U, the self-cleavage was found to be 0.31.

Regarding U43G U72A A75G, the self-cleavage amounted to 0.17.

For the variant U43G C44U A65U U67C, the self-cleavage turned out to be 0.15.

Take U43C A56G A64G U66C U69A U72C: the self-cleavage is 0.

For U43A A45G U67C, the self-cleavage worked out at 0.12.

Take U43C A56U C68A: the self-cleavage was determined as 0.18.

As for A45G A56G A57G U69C U80A, the self-cleavage was determined as 0.1.

For U43C U67A U76A, the self-cleavage amounted to 0.4.

For the variant U43C U66C U78C U80C, the self-cleavage stood at 0.09.

Regarding U43C U49C G70C, the self-cleavage was 0.14.

Consider U43C U72C U78A, for which the self-cleavage came to 0.73.

Consider U43C U51C U54A A56U U67C U72A, for which the self-cleavage came to 0.18.

Regarding U43A U74C A77U, the self-cleavage amounted to 1.26.

Take U43A G46U A47U C50U A56G: the self-cleavage amounted to 0.2.

For the variant U43A U51C U60A, the self-cleavage was determined as 0.66.

Consider U41G U51C U74C, for which the self-cleavage was determined as 0.36.

For the variant U41G U43A G61A A64U U67C A77U, the self-cleavage turned out to be 0.07.

In the case of A45C U48C U66C U67C, the self-cleavage is 0.17.

Regarding C44U A56G C62U U67A U80C, the self-cleavage came to 0.09.

In the case of C44A U54C U74A, the self-cleavage came to 0.72.

U43G U66C U69C: the self-cleavage is 0.19.

With U43C U72A U80C, the self-cleavage worked out at 0.75.

For U43A C59U U72C U74A, the self-cleavage was determined as 1.18.

Consider G42C U43C A45U A56G U72C U78G, for which the self-cleavage came to 0.25.

As for A45C A64U U74C, the self-cleavage worked out at 0.24.

On to U43C U48C U67C, for which the self-cleavage came out at 0.36.

On to A45C U58A G63U U69C, for which the self-cleavage came to 0.08.

On to U43C A47G U48C U78C, for which the self-cleavage was determined as 0.06.

For G42A G46C U69A U72A, the self-cleavage was 0.07.

As to U41G U51C U54C U72C A75G, the self-cleavage was 0.17.

U43A U49C U72C: the self-cleavage was determined as 0.35.

For C44U A47G U66C, the self-cleavage turned out to be 0.25.

For U41G U49C U67C A75G, the self-cleavage turned out to be 0.09.

Regarding A45C A56U U74A, the self-cleavage was found to be 0.06.

In the case of U43C C71A A75G U78A, the self-cleavage is 0.1.

As to U43C C44A U48C U78A, the self-cleavage was 0.25.

As to U43A U60C A65G, the self-cleavage stood at 0.22.

With U41C U72C U78G, the self-cleavage was 1.26.

As for U41C U72C U78A, the self-cleavage was found to be 1.31.

Regarding U43C G53U U69A, the self-cleavage was 0.32.

As for U43A U48C U78C, the self-cleavage worked out at 0.77.

Consider G42C U54A A75U, for which the self-cleavage was determined as 0.49.

Take G42C U60A U76A U80C: the self-cleavage was 0.33.

U43G A65G U66A U67C G70A U80C: the self-cleavage stood at 0.26.

With U43A A45G U60A, the self-cleavage was 0.34.

On to A45C A47U U54C, for which the self-cleavage turned out to be 0.11.

Turning to G42C U49C C59U, the self-cleavage is 0.1.

Regarding C44A A65G U72A, the self-cleavage is 0.07.

U43C A45G A57G U76C: the self-cleavage came out at 0.22.

Consider U43A U48C U66C, for which the self-cleavage was 0.12.

On to U41G U51A A57G, for which the self-cleavage was determined as 0.16.

Regarding C44U A56G A57G, the self-cleavage worked out at 0.16.

With U43C A65G U76A, the self-cleavage was 0.2.

In the case of U43A U69A U72A A77U, the self-cleavage is 0.42.

For U43A A64G U78C, the self-cleavage turned out to be 1.16.

As to U41G U43A U49C A56U U80C, the self-cleavage was found to be 0.07.

With U41G C44G A56G G63A A65U U67C, the self-cleavage is 0.35.

With U43C A47G U54C U69C, the self-cleavage came to 0.22.

For the variant U43C A45G U69C, the self-cleavage came to 0.18.

For the variant U43A U60A U76C, the self-cleavage was 0.66.

In the case of G42U A75U U78C, the self-cleavage was 0.23.

For the variant U41G U48C U66A U72A U80C, the self-cleavage was 0.31.

On to A45C U60C A64G U80C, for which the self-cleavage came out at 0.18.

Regarding A45G A47G A65G, the self-cleavage is 0.41.

Take A45C U49C U69A: the self-cleavage is 0.1.

Turning to U43C U54G C62U, the self-cleavage was 0.26.

As to U43C U54C U78A, the self-cleavage came out at 0.35.

Take U43C A45G A64U U78G: the self-cleavage was 0.06.

In the case of U43C U49G U76A, the self-cleavage is 0.11.

For U43C A65G U69A, the self-cleavage was 0.2.

Turning to U43C A45G U48C U60A, the self-cleavage worked out at 0.16.

For U43A U51C A57G A65G, the self-cleavage came to 0.5.

As to G42C A56G U60A, the self-cleavage came to 0.07.

For the variant U43C A75C U78C, the self-cleavage is 0.59.

A45G A47G U54C U78C: the self-cleavage was 0.28.

For the variant U41G U49C G53C U54C U72A, the self-cleavage was 0.11.

For U43A A45U G61U, the self-cleavage turned out to be 0.11.

Turning to U41G A45G U49C A65G U66C, the self-cleavage came out at 0.07.

For U43C G52A U54C U69C, the self-cleavage came out at 0.18.

On to U43C U49G A57G, for which the self-cleavage is 0.15.

U43C G53A U80C: the self-cleavage was 0.76.

In the case of U41G U58A U74C, the self-cleavage is 0.13.

As to G42U U51A U74C, the self-cleavage turned out to be 0.34.

Consider U43C U49C U60C, for which the self-cleavage worked out at 0.09.

Consider G42A U58C U67C, for which the self-cleavage was 0.12.

In the case of G42A A64U U76A, the self-cleavage worked out at 0.28.

As for U43C U60A C62G, the self-cleavage is 0.16.

U41G A65G U72A: the self-cleavage is 0.15.

On to U43A A64G U72A, for which the self-cleavage worked out at 0.69.

In the case of U43G U48A U69A, the self-cleavage was found to be 0.22.

On to G42A U60A U72A, for which the self-cleavage came to 0.09.

Regarding U43A U54C A56U, the self-cleavage is 0.71.

As for U43A A45G A47G G61C U72A U74C, the self-cleavage is 0.12.

Turning to U43C U60C G70U, the self-cleavage stood at 0.1.

With U41G U49G G55C G63A, the self-cleavage is 0.16.

In the case of G42A U48C A57G U66C, the self-cleavage is 0.38.

On to U41C U69A U76C, for which the self-cleavage was 0.76.

For U43C A45U U48C A64U, the self-cleavage is 0.1.

On to U43C U51A A56G, for which the self-cleavage turned out to be 0.26.

Turning to G42A G53U A64G U67C U69C, the self-cleavage came to 0.1.

Take U43C A64C U66A U69C: the self-cleavage amounted to 0.1.

On to U43C U58C U60C, for which the self-cleavage turned out to be 0.18.

Consider U43G U49C U80C, for which the self-cleavage came out at 0.45.

For U41G A56G U78A, the self-cleavage came out at 0.19.

In the case of U43C U54C A56G U78C, the self-cleavage was 0.07.

As for U43G C44U U54A U60A, the self-cleavage amounted to 0.13.

For the variant U43A U69G U72C U74C C81A, the self-cleavage amounted to 0.55.

As to U43C A45U U69C U80C, the self-cleavage is 0.07.

Regarding U43C A47G U66C, the self-cleavage was found to be 0.1.

For the variant U43A U54C U67A U80C, the self-cleavage came to 0.65.

Turning to U43A U54A A56G, the self-cleavage was 0.75.

For U43A A57G A64G U72C, the self-cleavage is 0.94.

As to U43C U60C U78C U80C, the self-cleavage stood at 0.4.

With U43G A45U A47U, the self-cleavage is 0.22.

Consider U43C U74C U80A, for which the self-cleavage was determined as 1.15.

Turning to C44U G55A A65G U69A, the self-cleavage was determined as 0.07.

Take U41C U69C U72C: the self-cleavage is 0.41.

Take A45C U48C G52C U54A U78A: the self-cleavage amounted to 0.4.

As to C44U A47G U58C, the self-cleavage was found to be 0.28.

Regarding A45G A47U U69C, the self-cleavage was found to be 0.37.

Take U43C A45U U80C: the self-cleavage is 0.12.

As to A45C U54C U60C, the self-cleavage turned out to be 0.2.

For U41G A45G U51A G53A A64U U78C, the self-cleavage was found to be 0.11.

Take U43A A64G A75G C79A: the self-cleavage was 1.01.

Consider U43C A56G U58C U60C U74A, for which the self-cleavage came to 0.29.

Take U43A U66C U80C: the self-cleavage was determined as 0.35.

Consider U41C U78C U80A, for which the self-cleavage came to 0.98.

Turning to U43C A57G U72C, the self-cleavage was 0.46.

As to U43A U48A G61A U69C A77U, the self-cleavage came to 0.16.

As to U43A A64U U66C, the self-cleavage worked out at 0.35.

As for U43A U48C A56G U76C U80A, the self-cleavage turned out to be 0.38.

Turning to U43C A45G U58G, the self-cleavage was found to be 0.12.

With C44U U60C U66A, the self-cleavage came to 0.18.

As for A45G A47G U51A G63A, the self-cleavage came to 0.28.

Consider U43A U67C A77G, for which the self-cleavage was found to be 0.51.

Regarding A45C U69A U80C, the self-cleavage amounted to 0.21.

A45C U67C U72C: the self-cleavage is 0.21.

As to U43A U48G U67C, the self-cleavage is 0.18.

On to U43A U49A U51A, for which the self-cleavage turned out to be 0.42.

For the variant A45G A56G U66C, the self-cleavage was found to be 0.23.

For the variant U43C U54C U72A U80C, the self-cleavage is 0.73.

As to C44U U51A G55U C62A, the self-cleavage came out at 0.13.

For U41G G53A U72C C79A, the self-cleavage was found to be 0.12.

On to U43G U51C U74C, for which the self-cleavage was 0.41.

Take U43C A56U U60A: the self-cleavage is 0.14.

As for U43A A56G U66A U69C, the self-cleavage was found to be 0.22.

With U41G U51C U54C, the self-cleavage is 0.15.

Consider U43C A65G G70A, for which the self-cleavage is 0.11.

Turning to C44G A45U U80A, the self-cleavage is 0.28.

As for U43C U48C G55A A56G U67C, the self-cleavage was 0.16.

With U43C A64G C68U U78C, the self-cleavage came to 0.17.

For the variant A45G A56G U69A A75G, the self-cleavage came out at 0.23.

Take G42U U49C C59U U74C: the self-cleavage came to 0.16.
